Whole data set: some 33,000 sequences, median “E-score (-0.5 to 0.5)” near -0.016, cut for the highest 2% near 0.32. The list shows a part of the results.
The sequences below were run against T1, Stp1 (UniProt B3LFK1) (assay: PBM E-score (8-mer binding enrichment) (E-score (-0.5 to 0.5)); higher = stronger / more preferred TF binding; most listed sequences are background and not binding sites). Conditions: protein concentration: 200 nM; construct: GST-full length.
T1 sequence: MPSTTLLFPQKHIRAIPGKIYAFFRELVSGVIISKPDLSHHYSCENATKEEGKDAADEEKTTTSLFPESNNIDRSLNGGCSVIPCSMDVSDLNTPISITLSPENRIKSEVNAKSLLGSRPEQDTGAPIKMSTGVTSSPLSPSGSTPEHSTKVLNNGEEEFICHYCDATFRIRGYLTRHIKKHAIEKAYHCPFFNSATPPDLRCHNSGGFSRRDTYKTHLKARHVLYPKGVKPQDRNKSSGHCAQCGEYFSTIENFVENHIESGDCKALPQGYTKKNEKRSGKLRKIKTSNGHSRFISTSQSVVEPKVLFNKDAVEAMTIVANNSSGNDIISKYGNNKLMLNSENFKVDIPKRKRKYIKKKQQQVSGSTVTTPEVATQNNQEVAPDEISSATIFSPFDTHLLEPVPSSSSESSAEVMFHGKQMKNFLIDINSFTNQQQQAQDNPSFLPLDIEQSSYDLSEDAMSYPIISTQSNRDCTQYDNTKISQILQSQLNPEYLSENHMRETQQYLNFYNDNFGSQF
In short: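 PURExpress in vitro transcription/translation supplied GST-tagged yeast transcription factors, either full-length or DNA-binding domain. Applied at about 100-200 nM to universal all-10-mer Agilent arrays double-stranded by primer extension, the bound protein was detected with fluorescent anti-GST. E-scores, modified Wilcoxon-Mann-Whitney statistics, were given by the Universal PBM Analysis Suite to ungapped eight-base words pooled with their reverse complements after masliner normalisation.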

| Sequence | PBM E-score |
| --- | --- |
| CTACGGAA | 0.0958 |
| AACTTGAC | -0.0754 |
| CCGGTGAA | 0.232 |
| TATGCCAA | 0.0886 |
| AGGTGGCA | 0.218 |
| CGGAGCTA | -0.127 |
| ATAAATCA | 0.144 |
| AGTGGAGC | 0.0728 |
| ATTAATAA | 0.122 |
| ATCTCCGG | -0.0109 |
| AACGAGCA | -0.037 |
| ATCCTATG | -0.0492 |
| GCTCCAAA | 0.0924 |
| AACGTCTC | -0.13 |
| CTACGCTA | -0.015 |
| AGCAGGCC | -0.199 |
| AATAGTCA | 0.0268 |
| AATCATGG | -0.177 |
| ATTTAAGG | 0.0537 |
| TGAGGGAA | -0.179 |
| CTGTGAGC | 0.136 |
| GGAGGATA | -0.118 |
| ATCTCGAA | 0.22 |
| ATTTCTGG | 0.0235 |
| CTAGTCTC | -0.179 |

| Sequence | PBM E-score |
| --- | --- |
| ATAATAGC | 0.0729 |
| CAACGCAC | 0.0556 |
| AATGAGGT | -0.0797 |
| CCCTACAC | -0.0256 |
| CGTCATCA | -0.0189 |
| TACACGTA | 0.0583 |
| AAGGATCG | 0.0164 |
| CCCACAAG | -0.111 |
| CAAGGAGC | -0.0794 |
| CACTTAGC | 0.0853 |
| ACTTGTGG | -0.159 |
| AAATTTTC | 0.0494 |
| CCTGTTCA | -0.0825 |
| AATTAATG | 0.21 |
| CATGACTA | -0.0261 |
| ACCTATCC | -0.0625 |
| CCCCCCCC | -0.5 |
| CCGGGGCC | -0.202 |
| TCGAGACA | -0.08 |
| CCCTGGGC | -0.217 |
| CAAACTTC | 0.0557 |
| AGGTACTA | 0.015 |
| CCGTGTCA | 0.306 |
| TCGACTAA | 0.0778 |
| AAATGACA | -0.0414 |

| Sequence | PBM E-score |
| --- | --- |
| ATTCCTGA | 0.0425 |
| CGCGGAGA | 0.109 |
| CTGCTACA | -0.00955 |
| GTCCGATA | -0.101 |
| CACGGACC | 0.163 |
| AACCCTAG | -0.101 |
| TGTCGCAA | 0.0986 |
| CACCCCCC | -0.259 |
| CCCCGGTA | -0.167 |
| ACGGAGTC | -0.00675 |
| AGTATCCG | 0.0313 |
| ATATCCGA | 0.189 |
| AAAACAGC | 0.0626 |
| CGTCCAGC | -0.00247 |
| GCATGAGC | 0.0557 |
| ACACAGGA | -0.134 |
| AAACGACC | -0.0604 |
| AAACCTCA | -0.0665 |
| ATTGTGGC | 0.0597 |
| GAGCTGGC | -0.0991 |
| GAATGAGC | -0.0395 |
| GAGGACGC | -0.108 |
| CCGTAGTC | -0.101 |
| ACCCACTA | -0.0848 |
| ACGTGAAA | 0.154 |

| Sequence | PBM E-score |
| --- | --- |
| CGCCATTC | 0.156 |
| ATCATGAT | 0.14 |
| TAGGGTAA | 0.0204 |
| CCTCCCCC | -0.416 |
| CATCGAGG | -0.0929 |
| AGTGCCCC | 0.057 |
| GTGCTCAA | 0.115 |
| GGTCATAA | -0.0644 |
| AAGGCACA | 0.338 |
| ACGTCAAG | -0.127 |
| AAATGCCA | 0.248 |
| CCGTGCAC | 0.254 |
| AGAAAGTA | 0.104 |
| GGCGCGAC | 0.36 |
| ATATTCGA | -0.0655 |
| ATTATTTA | 0.281 |
| TCTCTCCA | -0.00126 |
| TCCCAGAA | -0.106 |
| ACACTGTA | 0.0157 |
| CCTTACTA | -0.0363 |
| CAAGGACC | -0.144 |
| CATTACCA | 0.0358 |
| AGGCGGGG | 0.023 |
| ATCCTCCC | -0.304 |
| AAGCGCAG | -0.177 |

| Sequence | PBM E-score |
| --- | --- |
| ACGTGTAA | 0.0387 |
| ACAGATAA | -0.0189 |
| GATGTTAA | 0.102 |
| CTCCGTTA | -0.0232 |
| AATCAATC | 0.236 |
| GTATGCGA | 0.119 |
| TCGCCTCA | 0.281 |
| CCCGAATC | -0.19 |
| AGCGTACC | -0.115 |
| CGCGGGCC | 0.141 |
| GACGGGGA | -0.305 |
| CAGATGCC | 0.0945 |
| CCATTCAG | -0.0253 |
| CGTGGAAC | 0.0411 |
| ATTGTGGA | -0.14 |
| ACGTGAAC | -0.222 |
| TGATCCCA | -0.134 |
| GCTTTGAA | 0.00312 |
| GGTAACCA | -0.156 |
| CGGAGTAC | -0.208 |
| CACTACAG | -0.014 |
| ATGTAGTC | -0.0289 |
| AAAGGCTG | -0.102 |
| CATCGGGG | -0.271 |
| ACGTCAGG | -0.245 |

| Sequence | PBM E-score |
| --- | --- |
| CGCACTTA | 0.125 |
| TCGGTACA | -0.111 |
| CACTTCTA | -0.0559 |
| CTGATCAC | -0.165 |
| AAGAACGA | 0.048 |
| TAGTACAA | 0.0845 |
| CCCGCAGG | -0.122 |
| CCCGTGAG | -0.0263 |
| AAAAGCCA | 0.226 |
| GGATGGGA | -0.167 |
| CATGGTAC | -0.0423 |
| GCTTGGTA | -0.112 |
| AGGTCCTA | -0.253 |
| CCTGTGGA | -0.191 |
| GCAAGATA | 0.156 |
| ACGCTAAC | 0.0477 |
| GCGACCGC | 0.0376 |
| ATGCCGGC | 0.0928 |
| GTGCTGGA | -0.156 |
| GAGGTTTA | -0.0882 |
| GTAATAAC | 0.0247 |
| CAGGCACA | -0.259 |
| CTAGATGA | -0.0339 |
| AGAGGTGC | -0.13 |
| ATCGGACC | -0.0999 |

| Sequence | PBM E-score |
| --- | --- |
| GACGCCAC | 0.0288 |
| TAGAACCA | -0.131 |
| AAGGAAGC | -0.218 |
| CCCCCAAC | -0.405 |
| GTAGCAGA | 0.0625 |
| ACCCCGCG | 0.0567 |
| ACCTCAGT | -0.0378 |
| AGTGAGTC | -0.187 |
| GCCCTTCC | 0.0531 |
| CAATTTGC | 0.00701 |
| AAGCGTTA | -0.23 |
| ATTTAGAG | 0.0639 |
| GCTGGTCA | -0.159 |
| ATATGCAG | -0.116 |
| AACTGTCT | -0.237 |
| CCGTTTAG | 0.28 |
| ATGGTGGA | -0.243 |
| CCTCAAAG | -0.176 |
| AGCAGTGA | 0.134 |
| AGGGTCGA | -0.24 |
| ACCGGGGC | -0.0721 |
| CACGGTGG | -0.186 |

Reference: the supplement of paper PMC3334620
